Binding signal (log2 normalized intensity) data for 72 sequences are collected here from article PMC10726135.

This is one part of the list. At the low end of the ranking the order means little. The protein was read in a cell extract, so binding may be indirect.

This test deals with T1, HNF4alpha8 (COS-7 nuclear extract) (UniProt P41235-5).
T1 sequence: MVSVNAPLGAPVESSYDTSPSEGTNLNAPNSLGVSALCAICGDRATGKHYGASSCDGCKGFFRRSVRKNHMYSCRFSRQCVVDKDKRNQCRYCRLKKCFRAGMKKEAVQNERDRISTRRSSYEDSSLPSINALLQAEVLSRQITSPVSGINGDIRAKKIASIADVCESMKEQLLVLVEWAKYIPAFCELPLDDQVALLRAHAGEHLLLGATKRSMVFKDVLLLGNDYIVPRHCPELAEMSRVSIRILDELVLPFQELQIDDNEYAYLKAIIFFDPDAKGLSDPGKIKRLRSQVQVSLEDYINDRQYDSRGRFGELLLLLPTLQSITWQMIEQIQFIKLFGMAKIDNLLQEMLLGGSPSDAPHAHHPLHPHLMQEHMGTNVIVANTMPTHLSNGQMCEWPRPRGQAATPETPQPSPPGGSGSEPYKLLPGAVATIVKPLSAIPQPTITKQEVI
As to the kind of experiment: protein-binding microarray. Conditions: COS-7 nuclear extract on double-stranded Agilent 4x180k PBM; binding buffer, salt, pH and temperature not given; high values mean tight binding; double strand, one strand shown; sequences stand for … in …GCCTAGGGAGATTAGAGTATCGGTCGA
In the case of CCTTTTTGCATGAGAATCTGACCTTTGGTT, the binding signal (log2 normalized intensity) turned out to be 7.1. Under TTAGGAATGCAACTCTAACCTTTACCTTCT stands 2.93; under GCCACCATTGATCTAACAGGAGGTGGAGCT, -1.49. As to AGTGTGACCCTGAACCTACAGCCCCTGTGG, the binding signal (log2 normalized intensity) was 0.0394. TTCAATTTTTTTGTTGTTATCCATTTAAAA: the binding signal (log2 normalized intensity) amounted to 1.85. With CTAAATCTGAATAGAACTCAGGAAAGATCA, the binding signal (log2 normalized intensity) is -0.143.

In the case of TCCTGGTGCAGGGGGCGAGCATGGCCGCTC, the binding signal (log2 normalized intensity) was -1.32. For the sequence CATCCTGACCATCTGCGAAATGGGGATAAA, the binding signal (log2 normalized intensity) was -1.2. CTTTAGCTCAGCGGTTACTTCGAGTACATT: the binding signal (log2 normalized intensity) is 1.01. GAACCATTTGTGAGGATGGGCAGTCCCTAT: the binding signal (log2 normalized intensity) was -0.279. Consider CACCTTTTGGCTGTAGAAAGACTAAAGTTC, for which the binding signal (log2 normalized intensity) came out at 2.69. GATCTCCCCACATTCCAACACAGGGTCAAT: the binding signal (log2 normalized intensity) amounted to 3.48. In the case of GCTGTGTGACTCACCTTTGCTCTGATCTTT, the binding signal (log2 normalized intensity) amounted to 3.68. Then CAGTTTGGCTTCTGACCTTTGGCATTGTGT, with 6.55; and CCAAATCCCTGCCCACATCCATTTTCTATC, with 0.646; and AGGTCAGAGGACTTCCAAAGCCCCTTTCCA, with 0.63.

With GGATAAGTCTGTCTTGCTGTTTTTCCAGTT, the binding signal (log2 normalized intensity) was 1.6. Then AAATGCCTTCAGGGGCATTTGAGTACATGC, with 0.889; and AGTTTCTTCACTGACGAAACTCACATACTG, with -1.33; and CTCCTGGTTGGGGCCTCCCTCCGTGGGGCT, with -1.41. Under TACTATGCAATAACCAGGGAGTGGCAGCAT stands -1.3. Regarding AAGTTCCACATCAAGCACATTCCAGAACCA, the binding signal (log2 normalized intensity) is -1.42. Then GGGGGTAGGTGGAGTGAGGGAGGGGGGCTG, with -1.27.

Turning to AAAGCCCTAGCTGACTGCGTCAGGCAGTTG, the binding signal (log2 normalized intensity) was -1.41. Under GGTCACGTGCCGCTGCGGGTCACGTGCCGC stands 1.03; under TACAGATATTCTGAGACAACACTCAGGATA, -1.26. Under TTTTCTCCTTTCCTCCTATGTCAATAGAGC stands 0.835; under AGCGATCATGGGTGACCCGTTAAGAATGAG, 1.24. Turning to GGCCGTATCAGAAGAACTGCACTGTATCTT, the binding signal (log2 normalized intensity) was -0.024. Then CCTCAGAGATGTTTAGTGAGCTGTCTAATT, with 0.3; and TTATCTATACAGTTGTGGGTATGTCTGTAG, with 1.49.

Turning to ATCATTTCTACAGGGTCAAGCAAACAAATG, the binding signal (log2 normalized intensity) worked out at 0.669. Then AAGCTCTGAAAGCTTCAAAGGACAGGCTGA, with -1.38; and TGCCCATCTGGTGGTGGTTCTTGTTTCATT, with 1.78. Turning to TTCTTGTTAACCTCCTATGATCTTTCATTC, the binding signal (log2 normalized intensity) was determined as 1.85. For AAACAGGTGAAAGATAAGGGCTAGTTCATT, the binding signal (log2 normalized intensity) was -1.34. Under CAGGCGCCGACTGCCAGGAGGGGACTTCAA stands -1.3; under GTCATAAGAAACATTTTACAACCTATTCTC, -1.31; under AATATGGTCCCTGACCTTAAGGAGTGTCCT, 2.36. Under GCTAAAACCCTGGCCACTCCCTGATAGAGA stands -1.33; under ATCTGAGGTGGTCCAGGGCCCTTACCATCA, -1.36. Then CGTGCGGTCGGGCGCGCGGGCCGGGAGGGG, with -0.997; and GATTAAACAAACAAGTTTTATTGGGGGGTC, with 1.96. Regarding ATAGAACACTTGTACATACTTTTGGGGTAT, the binding signal (log2 normalized intensity) is 1.11. Under GAGGGTGGTGGGTGAAGGATGGAATGCTGA stands -1.29. Under TGAAGAAAGATCACACAAATGGATCTTTCT stands -1.3. As to TTCAACCTCTTTCTCTTTGATGTAAATTTT, the binding signal (log2 normalized intensity) was found to be 1.57.

Turning to AAACATCCTGCCTAACCACCTGACCACAAC, the binding signal (log2 normalized intensity) was -1.26. For the sequence ACTTGTGGTATGTTTGGATTGGGCAATGAC, the binding signal (log2 normalized intensity) was found to be 1.81.

Turning to CAAATCATTACTATCTGCTGGGGGCTGGGC, the binding signal (log2 normalized intensity) is -0.387. Then GCCTCTAGCCCAATATTTGCTTACCAAACT, with -1.27; and GCCTGGCGTGGATTCCGAGCGTTGGTGTCT, with 0.885; and TGGTTTTATGGTGTCTTATCTTCCTCTGGC, with 1.91. Under CAGGTCTTTCTGGAGATAACAGTGTAAGGA stands 0.953; under GTGAGGGAGAAGTTTTATGGCAGGGTCGGA, 1.52. Under TCCAGCCTCCAGCTACTCACTCTTCCCAAA stands -1.34; under ATTGACCCTTAGGCCAAGGCTTACTGGCGC, 0.384. In the case of CAGTGTGGCAGGTGAAATAGCTGAACTATT, the binding signal (log2 normalized intensity) is 1.34. Under CCCCGCGCCGCGTCCCTTCCCCCGGCGCAG stands 4.1. CTCTCTTTGTGAAATGGGACCCAACTTTTG: the binding signal (log2 normalized intensity) stood at 0.822. For the sequence TGCGGCTCTTCTGATCGTGAGAAGAGGACT, the binding signal (log2 normalized intensity) came to 0.434. In the case of GAAACGGGTTCAAGCTTGATCCAGGATCCT, the binding signal (log2 normalized intensity) is -0.823. For the sequence GACAGAAGGGAGAGTCCAAGATACCACTGA, the binding signal (log2 normalized intensity) is -1.35. In the case of GCTTAATCTCTGCTCATAATGCCAGGCAGG, the binding signal (log2 normalized intensity) was 0.304. Under GGTCAATGTGCACATTCGAAGTTTTGCTCC stands 1.65; under AATGATCTGGTCAGACTGAGAGAGCAGGGC, -1.26.

Turning to AGAAATGTTATCTCAGTAGACTAACGTATG, the binding signal (log2 normalized intensity) was determined as 0.588. Regarding GCATCGTGGGTATTTGGGGAGTTCTTTCTG, the binding signal (log2 normalized intensity) was 1.34. In the case of TCAATGTCCCCTTAGGAATAGTATCAGGCA, the binding signal (log2 normalized intensity) was 1.24. On to ATCTGCTGCCCTTCCCTCCACTATTGTCCT, for which the binding signal (log2 normalized intensity) came out at 2.86. With AGGACCATGTTCTCCTAAAGTGACTAGAGA, the binding signal (log2 normalized intensity) is -1.37. Consider AATGGACCCAAGCGGCCATTTACTGACTAA, for which the binding signal (log2 normalized intensity) is -0.973.
